Results taken from PubChem BioAssay AID1508623 (National Center for Advancing Translational Sciences (NCATS), 2021).
The campaign covered roughly 48,000 compounds. About 450 (0.94%) were called active. Another 19% or so got no clear call; they are omitted. Calls follow the shape of the dose curve; as a rule, active = well fitted inhibition curve with a large enough effect; inconclusive = small, poorly fitted or top-dose-only effect; inactive = no such curve, though single readings can be large or run the other way. The list shows a part of the results.

Experiment: Primary qHTS for Identification of Small Molecule Inhibitors of Huntingtin Promoter Activity; also: nearly all actives have a fitted effect of over 50% in size
Details: HEK293 HTT promoter firefly luciferase reporter (activity 0% = vehicle and -100% = no light), 24 h; series mostly up to 57.5 µM; activity change, negative = inhibition: at the top concentration
Method in brief: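 Luminescence was read after Dual-Glo reagent and a 10 min room-temperature incubation. Values were normalized to vehicle (0% activity) and zero RLU (-100% activity). Reporter HEK293 cells had been exposed to compounds (up to 57.5 uM final) for 24 h.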

Activity change, negative = inhibition, inactive:
Cc1c(C(=O)Nc2cccc(Cl)c2)oc2ccc(S(=O)(=O)N3CCOCC3)cc12 -4.7%
CCC(C)NC(=O)Cn1cnc2sc(C)c(S(=O)(=O)N3CCN(c4ccccc4OC)CC3)c2c1=O (stereo not given) -6.29%
COc1cccc(NC(=O)N2CCC(CN3CCOCC3)CC2)c1 -4.64%
CCc1ccccc1NC(=O)Cn1c(=O)ccc2cc(S(=O)(=O)N3CCC(C)CC3)ccc21 -28.8%
Cc1cccc(N2CCN(S(=O)(=O)c3c(C)nc4scc(C)n4c3=O)CC2C)c1 (stereo not given) -19.8%
Cc1ccc(CCNC(=O)CN2N=C(c3ccc(C)cc3)CCC2=O)cc1 -17.5%
CC1CCN(C(=O)c2ccc(NC(=O)c3nsc4ccccc34)cc2)CC1 -13.6%
CCOC(=O)c1sc(NC(=O)c2nc3nc(C)cc(C(F)F)n3n2)c(C(=O)OC)c1C -0.979%
CCOc1cccc(C2c3c(oc4cc(C)c(C)cc4c3=O)C(=O)N2c2nc(C)c(C)s2)c1 (stereo not given) -6.52%
Cn1nc(C(=O)Nc2ccccc2C#N)c2c1-c1ccccc1SC2 -10.2%
CCOc1ccc(Nc2oc(/C=C/c3cc(OC)c(OC)c(OC)c3)nc2C#N)cc1 -4.16%
COc1ccc(NC(=O)CN(C)S(=O)(=O)c2cnc[nH]2)cc1 -5.74%
CCOc1ccc(NC(=O)CSc2nc3ccccc3c(=O)n2CCC(=O)NC2CCCCC2)cc1 -14.3%
O=C(COC(=O)c1cc(-c2cccs2)nc2ccccc12)c1ccc(Cl)cc1 -8.99%
COc1cc(C(=O)NCCSc2c(C)[nH]c3ccccc23)cc(OC)c1OC -9.54%
O=C(NC1CC(=O)N(c2ccc(Cl)cc2)C1)C1CCCCC1 (stereo not given) -3.03%
COc1ccc(-c2noc(C3CC(=O)N(c4ccc5c(c4)OCCO5)C3)n2)c(OC)c1 (stereo not given) 0%
O=C(O)CSc1nc2ccccc2nc1N1CCCCC1 -19%
COC(=O)c1c(NC(=O)/C(C#N)=C/c2ccc(OC)cc2)sc2c1C(C(=O)OC)CC2 (stereo not given) 1.96%
CCc1ccccc1NC(=O)[C@H](Cc1ccccc1)N1Cc2ccccc2C1=O -2.67%
CCOc1ccc(NC(=O)c2oc3ccccc3c2NC(=O)C(C)Oc2ccccc2)cc1 (stereo not given) -26.3%
Cc1cccc(C)c1NC(=O)CSc1nccn1C -16.5%
Cc1ccc(C)c(CN2C(=O)c3ccccc3S(=O)(=O)c3ccc(C(=O)N4CCN(Cc5ccccc5)CC4)cc32)c1 7.63%
CC(=O)c1cc2c(cc1N/C(=N/S(=O)(=O)c1ccc(C)cc1)c1ccc(Cl)cc1)OCO2 -9.17%
O=C(CCn1c(=O)c2cccn2c2cccnc21)NCc1cccc(Br)c1 2.5%
Cc1ccc2c(=O)cc(C(=O)Nc3ccc(S(=O)(=O)N4CCCC(C)C4)cc3)oc2c1C (stereo not given) 11.4%
COc1ccc(-c2cn3c(n2)sc2cc(C(=O)NCc4ccccc4)ccc23)cc1 -18.4%
COc1ccc(OC)c(C2CC(=O)Nc3ccc4ccccc4c32)c1 (stereo not given) 3.91%
CCN(C(=O)CCS(=O)(=O)c1cc(Br)cc2c1N(C(=O)C1CC1)CC2)c1cccc(C)c1 -5.87%
COc1ccccc1C1=Nn2c(nc3sc(C(=O)Nc4ccccc4Cl)c(C)c3c2=O)SC1 -23%
Cc1ccc(C)c(C(=O)N2CCC(c3nc4c(nnn4Cc4ccccc4)c(=O)[nH]3)CC2)c1 -28.2%
CCOCCCn1c(SCC(=O)Nc2ccccc2OC)nc2c(oc3ccccc32)c1=O -23.8%
CC(NC(=O)c1c(O)nc2ccccn2c1=O)c1ccccc1 (stereo not given) -13.7%
S=c1[nH]c2ccccc2s1 5.47% [at 116 µM]
CCOc1ccccc1N1CC(c2nc3ccccc3n2CCCCOc2ccccc2)CC1=O (stereo not given) -4.26%
COc1ccc(CC(=O)NCc2ccc3c(c2)CCN3C(C)=O)cc1OC -40.2%
CCN(CC)S(=O)(=O)c1ccc2c(c1)c(=O)c(C(=O)NCc1ccc(Cl)cc1)cn2C -1.86%
CCOC(=O)C1CCN(C(=O)c2ccc3c(c2)sc2nc(-c4ccccc4)cn23)CC1 -18.3%
COc1cccc(CNC(=O)C2Cc3cc(S(=O)(=O)N4CCCCCC4)ccc3N2C(C)=O)c1 (stereo not given) 1.54%
Nc1c(C(=O)Nc2ccc(Cl)c(C(F)(F)F)c2)sc2nc(-c3ccncc3)ccc12 -24.1%
COc1ccc(C(=O)COC(=O)c2cc(-c3ccccc3)nc3c(C)cccc23)cc1 -3.07% [at 11.5 µM]
O=C1CCc2cc(S(=O)(=O)NCc3ccc(F)cc3)cc3c2N1CC3 -18.9%
CCC(=O)N1CCc2cc(Br)cc(S(=O)(=O)N3CCCC(C(=O)NCc4cccc(OC)c4)C3)c21 (stereo not given) -7.62%
Cc1nc2c(-c3ccccc3)c(C)nn2c(C)c1CCC(=O)N1CCN(c2ccccc2)CC1 -7.65%
CC(=O)N1CCCc2ccc(NS(=O)(=O)c3ccc(C)c(C)c3)cc21 3.67%
Cn1nc(C(=O)N2CCN(c3cccc(Cl)c3)CC2)c2c1-c1ccccc1S(=O)(=O)C2 -17.8%
CCc1cc2c(cc3c(=O)n(CC(=O)N4CCC(C)CC4)nc(CC)n32)s1 -9.64%
NCCCNCCSP(=O)(O)O 3.76% [at 11.5 µM]
CCCS(=O)(=O)c1ncc(Cl)c(C(=O)Nc2c(C(=O)c3ccccc3)oc3ccccc23)n1 -8.5%
CCc1ccc(-n2c(=O)c3ccc(C(=O)NCCc4ccccc4)cc3n(CC(N)=O)c2=O)cc1 -23.4%
CCS(=O)(=O)N1CCc2cc(C(=O)Nc3ccc(C)c(Cl)c3)ccc21 -7.26%
CCCCOc1ccc(C(=O)NCC2(N3CCN(C)CC3)CCCCC2)cc1 -6.39%
O=C(Nc1nnc(S(=O)(=O)N2CCOCC2)s1)c1cccc(F)c1 22.8%
CC(=O)c1cccc(NC(=O)C(Cc2ccccc2)NS(=O)(=O)c2ccc(Br)s2)c1 (stereo not given) -4.51%
O=C(Nc1ccc(Cl)cc1)N1CCC(CN2CCCC2)CC1 -15.1%
Cc1ccc2c(c1)C(c1ccccc1)N(C(=O)c1ccc(OC(C)C)cc1)CC(=O)N2 (stereo not given) -15.9%
Cc1c2cnn(-c3ccccc3)c(=O)c2c(C)n1CC(=O)NCc1ccccc1Br -16.8%
Cc1cccc(CCNC(=O)Cn2ncc3c(=O)oc4ccccc4c32)c1 -4.78%
COc1ccc(Cn2cc(C(=O)c3ccc(OC)cc3)c(=O)c3cc4c(cc32)OCCO4)cc1 -1.24%
CCC(=O)O[C@]1(C(=O)CO)CC[C@H]2[C@@H]3CCC4=CC(=O)CC[C@]4(C)[C@@H]3CC[C@@]21C 13%
COc1ccc(OC)c(NC(=O)c2cn3c4c(ccc(Cl)c4c2=O)OC(C)C3)c1 (stereo not given) -8.59%
COc1c(Cl)cc(Cl)cc1/C=C(\C#N)c1nc2ccccc2[nH]1 2.39%
CCN(CCCNC(=O)c1nn(-c2ccc(C)cc2)c(=O)c2c1c1ccccc1n2C)c1ccccc1 -8.22%
Cc1ccc(C)c(N2CCN(C(=O)CCCn3ncn4c(cc5occc54)c3=O)CC2)c1 -33.5%
COc1cccc(CNC(=O)CCS(=O)(=O)c2cc3c(cc2C)NC(=O)CO3)c1 -5.86%
CCc1ccc(-n2c(=O)c3c(C)c(C(=O)N(C)C)sc3n(Cc3cccc(C)c3)c2=O)cc1 1.33%
CCOc1ccc(CNC(=O)CCn2nc(C)c3c(C)n(-c4ccccc4)nc3c2=O)cc1 -10.9%
CN(C)c1ccc(CNC(=O)CCCN2C(=O)CCn3nc(-c4cccn4C)cc32)cc1 0.166%
Cc1ccc(-n2c(=O)c3c4c(sc3n(Cc3ccccc3F)c2=O)CCC4)cc1C -12.4%
Cc1nc(-c2ccc(Cl)cc2)sc1CCNC(=O)c1ccco1 10.5%
COc1cc(-c2nc3sccn3c2Nc2cccc(C)c2)ccc1O 13.9%
Cc1ccc(O)c(-c2ccnc3cc(-c4ccc(Cl)cc4)nn23)c1 -12.1%
Cc1coc2cc3oc(=O)c(CC(=O)NCc4ccc(F)cc4)c(C)c3cc12 -9.77%
COc1ccccc1OCCCn1c(C2CC(=O)N(c3ccccc3Cl)C2)nc2ccccc21 (stereo not given) -12.4%
Cc1ccc(Cn2c(=O)n(Cc3nc(-c4ccccc4)no3)c(=O)c3cc4c(cc32)OCO4)cc1 -4.55%
CC(=O)c1cccc(NC(=O)CCc2c(C)nc3c(-c4ccc(F)cc4)c(C)nn3c2C)c1 -19.3%
O=C(Nc1ccccc1)N1CCN(C(=O)c2nsc3ccccc23)CC1 -12.7%
CCCc1nc2sc3c(N4CCCCC4)ncnc3c2c2c1CCCC2 -11.7%
COc1ccc(OC)c(NC(=O)Cn2cc(S(=O)(=O)c3ccccc3)c(=O)c3cc(C)ccc32)c1 -10%
Cc1ccc(CCNC(=O)CCn2c(=O)c3cccn3c3ccc(F)cc32)cc1 -8.81%
Fc1cccc(F)c1-c1nc(-c2ccncc2)no1 52.3%
O=C(CCn1c(=O)c2cccn2c2ccc(F)cc21)NCc1ccccc1F -12%
Cc1ccc(NC(=O)CSc2nc(-c3ccc(F)cc3)cc(C(F)(F)F)c2C#N)cc1 -18.8%
Cc1cccc(NC(=O)Cn2c(=O)n(Cc3ccc(C(=O)NCc4ccc5c(c4)OCO5)cc3)c(=O)c3ccccc32)c1 -8.03%
CCNC(=O)CC1C(=O)N(c2ccccc2)C(=O)N1Cc1ccc(F)cc1 (stereo not given) -8.05%
COc1ccc(NC(=O)Cn2c(=O)oc3cc(S(=O)(=O)NC(C)C)ccc32)cc1OC -18.6%
Cc1ccccc1Cn1c(CCCNC(=O)C2CCCCC2)nc2ccccc21 -28%
Cc1ccccc1Cn1c(SCc2ccc(C(=O)NCc3cccs3)cc2)nc2ccncc21 -21.6%
Cc1cccc(OCc2nnc(SCC(=O)Nc3ccc(C)cc3C)o2)c1 -9.15%
COc1ccccc1N1CCN(S(=O)(=O)c2ccc3c(c2)oc(=O)n3C)CC1 -9.57%
Cc1nnc(N2CCC(C(=O)NC(C)C)CC2)c2nn(-c3ccc(Cl)cc3)c(C)c12 -2.54%
CCN(CCCNC(=O)c1cc2c(=O)[nH]c3ccccc3c2s1)c1ccccc1 -13.5%
CCC1CCCCN1S(=O)(=O)c1ccc(NC(=O)c2cc(=O)c3ccccc3o2)cc1 (stereo not given) -34.4%
O=S(=O)(c1ccc(-n2cnnn2)cc1)N1CCN(c2ccccc2F)CC1 -12.9%
O=C(Nc1nc(-c2ccc(Br)cc2)ns1)c1ccc(F)cc1 -6.7%
